# Reference: PubChem BioAssay AID1948 (National Center for Advancing Translational Sciences (NCATS), 2009)
# The whole screen tested about 110,000 compounds, of which about 20 (0.02%) were called active. Inconclusive means that the source gave no clear call. Such entries were picked first, then a sample of the others. Calls follow the shape of the dose curve; as a rule, active = well fitted activation curve with a large enough effect; inconclusive = small, poorly fitted or top-dose-only effect; inactive = no such curve, though single readings can be large or run the other way. No potency is given beside an inconclusive call; the fits are too rough.
# Experiment: qHTS Assay for Compounds that Induce Erasure of Genomic Imprints;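 as to activity change, positive = activation: 0% = negative control wells on the plate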
# Conditions: mouse ES Peg3-LacZ reporter, beta-gal luminescence, 40 h; activity change, positive = activation: at 10.9 µM (top of the series) unless noted
# Excerpt: qHTS Assay for Compounds that Induce Erasure of Genomic Imprints NIH Chemical Genomics Center [NCGC] NIH Molecular Libraries Screening Centers Network [MLSCN] Assay Submitter (PI): JEFFRIES, SEAN, NCGC, University of Cambridge NCGC Peg3 Imprinting Assay Overview Genomic imprinting is the epigenetic process whereby genes are expressed in a parent of origin fashion. […] Unlike some forms of epigenetic silencing that can be overcome by overexpression of transcription factors, genomic imprinting stably represses the expression of one allele despite potentially high levels of expression from the other allele. […] During mouse embryonic day 11.5 imprints are erased in PGCs so that sex specific imprints can be reestablished during gametogenesis. Embryonic germ (EG) cells can be derived from developing PGCs at embryonic day 11.5 and these cells often lack genomic imprints. […] Embryonic stem (ES) cells are a cell type similar to EG cells in phenotype and transcriptional profile, yet ES cells maintain genomic imprints. This similarity between ES and EG cells prompted us to use ES cells to look for factors which could induce imprint erasure. To investigate the stability of genomic imprinting, ES cells were derived from mice with an insertion of a LacZ-Neomycin reporter construct in the Peg3 locus. Peg3 is an imprinted locus where gene expression is restricted to the paternal allele. […] Using LacZ expression we are able to monitor the state of the Peg3 imprint. In order to dissect the mechanisms involved in imprint erasure using a forward chemical genetics approach we developed a cell based phenotype assay using an endogenous silence imprinted locus. This assay utilizes maternally inherited Peg3LacZ-Neo ES cells by monitoring the LacZ expression from the normally silent Peg3 allele. To facilitate screening, high-density feeder-free ES cell culture has been optimized so that ES cells can be grown in 1536 for over four days without feeding or washes. The assay uses a luminescence based read out for LacZ activity and is a homogenous assay optimal for HTS.
# NCGC Peg3 Imprinting Assay Protocol Summary ES cell lines were derived from blastocysts taken from Peg3LacZ-Neo x129 matings. Lines were sexed and genotyped for the Peg3LacZ-Neo allele. Female cells carrying the reporter allele were used in this study. Cells were derived on a layer of mouse embryonic fibroblasts and passaged multiple times before switching to feeder free culture. Cells were maintained feeder free on gelatin coated dishes in DMEM/F12 media supplemented with 15% FBS, 2mM L-glutamine, 100 units/ml penicillin, 100ug/ml streptomycin, 0.1mM MEM nonessential amino acids, 1mM sodium pyruvate, 0.1% sodium bicarbonate, 0.1mM 2-Mercaptoethanol, and 400 units/ml leukemia inhibitory factor (LIF) at 37C with 5% CO2. The assay was performed in 1536-well format. A single luminescence read was taken at the end of the assay and the data was normalized by plate to internal negative controls. Maximum efficacy and AC50 values were calculated from dose-response data using the standard Hill equation. 1536 well plates were filled with 0.5ul of 0.1% gelatin per well, spun down and incubated for at least 30 min at 37C. The ES cells were then trypsini Peg3 1536-well assay protocol: (1)Plate 0.5ul/well 0.1% gelatin in white tissue culture treated 1536-well plates, spin and incubate at 37C for at least 30 min. (2)Add 5ul/well (300 cells) of ES cell suspension from freshly trypsinized cells and incubate at 37C, 5% CO2 for 40 hours. (3)Add 5ul/well of freshly prepared BetaGlo solution and incubate at room temperature for 5 minutes. (4)Read luminescence on the ViewLux plate reader. Keywords Genomic Imprinting, Germ Cells, Embryonic Stem Cell, DNA Methylation, Peg3, qHTS, NIH roadmap, NCGC
# Potency is read from the fitted curve at half-maximal effect; tags tell the direction and shape of the fitted curve.
Compound,"activity change, positive = activation",Potency
CN(C)CCCN1c2ccccc2Sc2cnccc21,inactive: -2.31%,–
CCOc1cc(C2c3c(oc4ccc(F)cc4c3=O)C(=O)N2Cc2ccc(C)cc2)ccc1O (stereo not given),inconclusive: 49.8% [activator],–
CCc1ccc(C2c3c(n[nH]c3C)C(=O)N2c2ccc(C)cc2)cc1 (stereo not given),inconclusive: 49.4% [activator],–
COc1ccc(CC(=O)N2CCN(C(=O)c3ccco3)CC2)cc1,–,"inconclusive [activator, single point]"
O=c1c2c(nc3c(-c4cccc5ccccc45)c[nH]n13)CCC2,–,"inconclusive [activator, single point]"
CCC(C)c1ccc(OCC(=O)O)cc1 (stereo not given),–,"inconclusive [activator, single point]"
COc1ccc(-c2noc(CSc3nnc(-c4ccncc4)n3-c3ccccc3)n2)cc1,inconclusive: 41.5% [activator],–
CCc1nc(SCC(=O)Nc2cc(C)on2)c2c(C)c(C)sc2n1,inactive: -0.909% [at 60.7 µM],–
Cc1nc2nc(SCC(=O)Nc3cccc(Cl)c3)nn2c(C)c1Cc1ccccc1,inactive: -8.16%,–
N#Cc1c(NC(=O)c2nc3ncccn3n2)sc2c1CCCCC2,inactive: -11.8% [at 60.7 µM],–
CCC(=O)N1CCc2cc(S(=O)(=O)NC(C(=O)NCc3ccccc3Cl)C(C)C)ccc21 (stereo not given),inconclusive: 44.9% [activator],–
Cc1nn(C(=O)c2ccccc2)c(C)c1S(=O)(=O)N1CCOCC1,inconclusive: 30.2% [activator],–
CCN1C(=O)N(C)C2(c3ccccc3)N(C)C(=O)N(C)C12c1ccccc1 (stereo not given),–,"inconclusive [activator, single point]"
COCCNc1ncnc2ccc(-c3ccccc3OC)cc12,inactive: -16.9% [at 60.7 µM],–
Cc1ccc(-n2nc(C(=O)NCc3ccc(F)cc3Cl)c3c4ccccc4n(C)c3c2=O)cc1,inconclusive: 46.9% [activator],–
Cc1ccc(NC(=O)C2CCCN2S(=O)(=O)c2ccc3nc(-c4ccccc4)[nH]c3c2)cc1C (stereo not given),inactive: -13%,–
Cc1c2cnn(-c3ccccc3)c(=O)c2c(C)n1C(C)C(=O)NCc1cccc(Br)c1 (stereo not given),inactive: -6.89%,–
CCNc1ncc2nc(-c3cc(F)cc(F)c3)c(=O)n(C)c2n1,–,"inconclusive [activator, full curve]"
Cc1cc(C(=O)COC(=O)C2COc3ccccc3O2)c(C)n1CC1CCCO1 (stereo not given),inactive: -9.49% [at 60.7 µM],–
CCOc1ccc2nc(N(Cc3cccnc3)C(C)=O)sc2c1,inconclusive: 40.8% [activator],–
C[C@H](NC(=O)NCc1cccs1)C(=O)O,–,"inconclusive [activator, single point]"
COc1cc2c(C(=O)NCCCN3CCN(c4cccc(Cl)c4)CC3)cn(C)c(=O)c2cc1OC,inactive: -16.4% [at 60.7 µM],–
COc1ccc2nc(C)cc(Nc3ccc(N4CCOCC4)cc3)c2c1,inactive: 3.2% [at 60.7 µM],–
Cc1cc2nc3[nH]c4c(Cl)cc(Cl)cc4c3nc2cc1C,inactive: -3.04%,–
Cc1ccc(N2C(=O)CS(=O)(=O)C23C(=O)N(Cc2ccc(Cl)cc2)c2ccccc23)cc1C (stereo not given),inconclusive: 91.4% [activator],–

Compound,"activity change, positive = activation",Potency
Cc1cc(NS(=O)(=O)c2ccc(C3CCCCC3)cc2)no1,–,"inconclusive [activator, single point]"
CCc1ccc(CNC(=O)CCn2c(=O)c3cccn3c3ccc(F)cc32)cc1,inconclusive: 42.5% [activator],–
N[C@@H](COP(=O)(O)O)C(=O)O,–,"inconclusive [activator, single point]"
Cc1oc(C(=O)O)cc1COc1ccccc1Cl,inactive: -19.2% [at 60.7 µM],–
COc1ccc(N2CCN(C(=O)CS(=O)(=O)c3cccc4nsnc34)CC2)cc1,inconclusive: 40.9% [activator],–
CCCCc1c(O)nc(SCC(=O)N2CCCCC2)n(-c2ccccc2C)c1=O,–,"inconclusive [activator, single point]"
CCOC(=O)c1ccccc1NC(=O)N1CCOc2ccc(Cl)cc21,inconclusive: 57.6% [activator],–
Nc1ccc(S(=O)(=O)NCCS(=O)(=O)O)cc1,inactive: -4.69%,–
O=C(c1ccc2c(c1)OCO2)N1CCN(c2ccccc2)CC1,inactive: 4.81% [at 60.7 µM],–
Cc1cccc(CC(=O)NCCc2csc(-c3ccc(C(F)(F)F)cc3)n2)c1,inconclusive: 32.6% [activator],–
COc1cccc(-c2cncnc2NCc2cccnc2)c1,inactive: -12.7% [at 60.7 µM],–
Cc1cc(C)cc(Oc2c(C(F)(F)F)oc3c(CN4CCCC(C)C4)c(O)ccc3c2=O)c1 (stereo not given),inconclusive: 31.5% [activator],–
O=c1c(-c2cccc(F)c2)nc2cncnc2n1Cc1ccc(F)cc1,–,"inconclusive [activator, single point]"
Cc1cc(NC(=O)c2cccnc2)cc(-c2nc3cc(Cl)ccc3o2)c1O,inconclusive: 38.7% [activator],–
COC(=O)c1c(-c2cccs2)csc1NC(=O)CN1CCOCC1,inactive: -23.1% [at 60.7 µM],–
COc1cc(OC)cc(C(=O)Nc2cc(-c3nc4ccccc4s3)ccc2OC)c1,inactive: 5.49%,–
Cc1cc(O)c(C(c2cccc(F)c2)N2CCC(C)CC2)c(=O)n1Cc1ccco1 (stereo not given),inactive: 7.29%,–
COc1ccc(C)cc1NC(=O)CCN1CCCC1,inactive: -6.15% [at 60.7 µM],–
CN(C)c1ncc2nc(-c3cn(C)c4ccccc34)c(=O)n(C[C@H]3CCCO3)c2n1,–,"inconclusive [activator, full curve, poor fit]"
CCOc1ccc(S(=O)(=O)n2nc(C)c(S(=O)(=O)N3CCCCCC3)c2C)cc1,inconclusive: 35.1% [activator],–
COC(=O)NCc1ccc(CNC(=O)OC)cc1,–,"inconclusive [activator, single point]"
COc1ccc(-c2[nH]c(-c3ccc(F)cc3)nc2SCC(=O)Nc2ccc(OC)c(OC)c2)cc1,inactive: -10.6%,–
c1cncc(CNc2ccnc(-c3cccnc3)n2)c1,–,"inconclusive [activator, full curve, poor fit]"
Cc1oc(-c2ccc(Cl)cc2)nc1CSc1nnc(C)n2c1cc1sccc12,inconclusive: 35% [activator],–
COC(=O)c1[nH]c2ccc(C)cc2c1NC(=O)CN1CCC(C)CC1,–,"inconclusive [activator, single point]"
